Measured values as given in the supplement of paper PMC12645437, “Orthogonal IMiD-Degron Pairs Induce Selective Protein Degradation in Cells” (ACS Chemical Biology, 2025).
The other results are listed elsewhere or left out.

Target: no compound (DMSO)
Assay: log2 fold change of degron read counts, EGFP-low vs EGFP+ sorted cells; higher = lower degron-EGFP level without compound (poor expression or instability)
Settings: compound: DMSO control; 18 h
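Note: jurkat cells carrying a lentiviral library of mutant zinc finger degrons fused to EGFP plus mCherry, mCherry+ cells FACS sorted, degron abundance counted by next-generation sequencing.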

Row | Sequence | log2 fold change of degron read counts
1 | FVCEICGACFTQKGNLLRHIKL | -1.37
2 | FECNQCGRNFTQKGNLLRHIKL | -0.705
3 | FVCEICGRSFTQKGNLLRHIKL | -2.2
4 | FNCDICGAHFTQKGNLLRHIKL | -1.04
5 | FWCPVCGAPFTQKGNLLRHIKL | 1.13
6 | LVCEICGFECTQKGNLLRHIKL | -1.24
7 | FCCEICGRIFTQKGNLLRHIKL | -0.275
8 | FKCNQCGAKFTQKGNLLRHIKL | -1.17
9 | LRCPICGFACTQKGNLLRHIKL | 1.19
10 | FGCEQCGAGFTQKGNLLRHIKL | -0.783
11 | FVCPVCGALFTQKGNLLRHIKL | 0.266
12 | FCCEICGRWFTQKGNLLRHIKL | -0.143
13 | FGCNVCGAQFTQKGNLLRHIKL | -1.07
14 | FGCPICGAAFTQKGNLLRHIKL | 0.0544
15 | FVCDVCGAIFTQKGNLLRHIKL | -1.1
16 | FFCEICGHKFTQKGNLLRHIKL | -0.867

Row | Sequence | log2 fold change of degron read counts
17 | FGCPICGALFTQKGNLLRHIKL | 0.113
18 | FFCEVCGAHFTQKGNLLRHIKL | -1.08
19 | FHCEICGRGFTQKGNLLRHIKL | -0.791
20 | FWCDICGARFTQKGNLLRHIKL | -0.0623
21 | LGCNQCGFRCTQKGNLLRHIKL | 2.17
22 | FYCPICGASFTQKGNLLRHIKL | -0.263
23 | FDCPICGADFTQKGNLLRHIKL | -1.14
24 | LVCNQCGFQCTQKGNLLRHIKL | -0.242
25 | FHCSVCGHKFTQKGNLLRHIKL | -1.01
26 | FYCNQCGHYFTQKGNLLRHIKL | 0.974
27 | FECNVCGAGFTQKGNLLRHIKL | -2.33
28 | LFCEICGFTCTQKGNLLRHIKL | 0.148
29 | FECEQCGAAFTQKGNLLRHIKL | -1.73
30 | FCCNQCGRKFTQKGNLLRHIKL | -0.13
31 | FFCEICGHFFTQKGNLLRHIKL | 0.75
32 | FECPICGHFFTQKGNLLRHIKL | -0.521
